# The list shows a part of the results. The full chains were built here from the parent and the listed change. Values near 0.05 are background.
# B1: TEV protease; numbered along this chain (parent)
# chain: MGESLFKGPRDYNPISSSICHLTNESDGHTTSLYGIGFGPFIITNKHLFRRNNGTLVVQSLHGVFKVKDTTTLQQHLVDGRDMIIIRMPKDFPPFPQKLKFREPQREERICLVTTNFQTKSMSSMVSDTSCTFPSGDGIFWKHWIQTKDGQCGSPLVSTRDGFIVGIHSASNFTNTNNYFTSVPKNFMELLTNQEAQQWVSGWRLNADSVLWGGHKVFMVKPEEPFQPVKEATQL
# Variants of: B1
# Test: raw area under fraction-flipped curve 0-4 h after induction (AUC4h, not background-subtracted), DNA-recorder readout of cleavage of the substrate (dimensionless); higher = more cleavage of the substrate by the protease variant
# Conditions: temperature: 34 °C; time window: 0-4 h after rhamnose induction
# Experimental: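 In vivo DNA recorder in E. coli TOP10(DE3) ΔrhaA at 34 °C. Each TEVp single-site mutant (parent TEVp 0) is paired with a single-site variant of the 7-mer TEVs (canonical ENLYFQ|S). The substrate sits between flexible linkers in a Bxb1-sfGFP-TEVs-SsrA fusion, so cleavage stabilises Bxb1 and speeds flipping of a recombination array, read by NGS. The value is the raw area under the fraction-flipped curve over 0-4 h after rhamnose induction (AUC4h), with ≥20 reads per time point. It is not background-subtracted; inactive controls average about 0.047.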
# 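Note: Bxb1 expression induced with 0.2% (w/v) L-rhamnose at OD600 near 0.5, cultures sampled hourly, flipped fraction per protease–substrate barcode pair counted by paired-end Illumina sequencing.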
Variant,area with substrate EALYFQS,area with substrate ECLYFQS,area with substrate EDLYFQS,area with substrate EGLYFQS,area with substrate EHLYFQS,area with substrate EILYFQS,area with substrate EKLYFQS,area with substrate ELLYFQS,area with substrate EMLYFQS,area with substrate EPLYFQS,area with substrate EQLYFQS,area with substrate ERLYFQS,area with substrate ESLYFQS,area with substrate EVLYFQS,area with substrate EWLYFQS,area with substrate EYLYFQS,area with substrate EELYFQS,area with substrate ETLYFQS,area with substrate EFLYFQS
I36T,0.101,0.0875,0.111,0.0605,0.0885,0.0785,0.0768,0.0823,0.094,0.115,0.107,0.0559,0.0836,0.0787,0.0719,0.0898,,,
I36W,0.0838,0.0571,0.0736,0.0568,,0.0608,0.0508,0.0528,0.053,0.0606,0.0755,,0.0587,0.0591,,0.0611,0.0661,0.066,
G202Q,0.0716,0.0763,0.0854,,0.0699,0.0517,0.0717,,0.0626,0.0669,0.0612,,0.0743,0.0763,,,0.0711,0.0897,0.112
V165T,0.079,0.0767,0.0867,,0.0788,0.0413,0.068,,0.11,0.0754,0.0684,0.0724,0.0743,0.0977,,0.0589,0.109,0.0717,0.0739
R204F,0.13,0.0973,0.169,0.0729,,0.133,0.122,0.0791,0.125,0.147,0.133,0.103,0.111,0.0948,0.108,,0.125,0.0974,0.138
D149Y,0.0813,0.0745,0.106,0.0645,0.0807,0.0625,,0.0705,0.0783,0.0746,0.0671,0.0783,0.0682,,,0.0809,0.0858,0.0799,0.0649
W203G,0.0653,0.0548,0.0696,,0.0662,0.0528,0.0636,,0.0612,,0.0607,0.0725,0.0617,0.0591,0.0752,0.0839,,,0.0495
S124R,0.133,0.11,0.118,0.0954,0.124,0.0966,,0.103,,,0.14,0.115,0.117,0.0956,0.123,,0.118,0.104,0.108
S169M,0.0711,0.0688,0.0804,0.0312,0.0914,0.0507,0.0519,0.066,0.0662,0.0532,0.0642,0.0862,,0.0698,0.0738,,0.0724,,
S169W,0.0614,0.0448,0.05,,0.0583,0.0624,0.0639,,0.0631,,,,,0.0753,,0.0676,0.0565,,0.0636
K7D,0.107,0.0743,0.0663,,0.0822,,,0.101,0.104,0.0767,0.0962,0.0956,0.105,0.0848,0.101,,0.111,,
Q194F,0.141,0.0982,0.101,,0.0749,0.0834,,,,,0.108,0.125,0.0932,,,,0.115,,

# — the supplement of paper PMC12217912
